From article PMC10514306, “The CBL1/9-CIPK1 calcium sensor negatively regulates drought stress by phosphorylating the PYLs ABA receptor” (Nature Communications, 2023)
Results are given in words; binding and its absence hold for the method and conditions named. In cells and extracts the contact can be indirect. Some results given as binding are weak or reduced against the parent protein; the word gives no strength. Sequences can lack the tags named with a protein.

Columns and labels:
Test in all cases: split reporter; split-luciferase complementation (LCI): CIPK1-nLUC and PYR1/PYLs-cLUC co-injected into N. benthamiana leaves, signal read after 72 h with a CCD camera
[1] = molecular target: T1, OST1 (LCI fusion) (Arabidopsis) (UniProt Q940H6)
T1 sequence: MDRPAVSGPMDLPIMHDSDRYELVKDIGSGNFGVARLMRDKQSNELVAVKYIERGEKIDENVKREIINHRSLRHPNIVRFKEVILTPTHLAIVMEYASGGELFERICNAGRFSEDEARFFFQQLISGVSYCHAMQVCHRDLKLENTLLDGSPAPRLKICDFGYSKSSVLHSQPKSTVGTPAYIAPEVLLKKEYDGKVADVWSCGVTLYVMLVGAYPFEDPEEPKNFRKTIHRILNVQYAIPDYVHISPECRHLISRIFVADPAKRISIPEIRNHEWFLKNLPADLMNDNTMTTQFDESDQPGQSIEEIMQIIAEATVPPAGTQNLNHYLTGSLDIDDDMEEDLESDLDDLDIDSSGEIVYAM

[2] = molecular target: T2, PYL12-cLUC (Arabidopsis) (UniProt Q9FJ49)
T2 sequence: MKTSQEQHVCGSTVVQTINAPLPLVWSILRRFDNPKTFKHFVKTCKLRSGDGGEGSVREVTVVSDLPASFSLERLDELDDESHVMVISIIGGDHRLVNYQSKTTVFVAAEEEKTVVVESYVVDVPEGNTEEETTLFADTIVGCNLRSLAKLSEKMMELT

[3] = molecular target: T3, PYL13-cLUC (Arabidopsis) (UniProt Q9SN51)
T3 sequence: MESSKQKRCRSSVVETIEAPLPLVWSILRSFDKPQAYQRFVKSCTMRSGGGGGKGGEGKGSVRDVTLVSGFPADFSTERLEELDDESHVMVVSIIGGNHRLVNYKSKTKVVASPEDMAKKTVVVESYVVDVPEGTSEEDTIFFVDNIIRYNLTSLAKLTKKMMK

[4] = molecular target: T4, PYL2-cLUC (Arabidopsis) (UniProt O80992)
T4 sequence: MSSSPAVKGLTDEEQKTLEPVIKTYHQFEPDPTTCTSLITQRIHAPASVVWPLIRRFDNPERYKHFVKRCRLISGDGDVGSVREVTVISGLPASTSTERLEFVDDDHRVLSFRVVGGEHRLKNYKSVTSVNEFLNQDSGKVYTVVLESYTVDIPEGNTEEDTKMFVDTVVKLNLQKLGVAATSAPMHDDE

[5] = molecular target: T5, PYL3-cLUC (Arabidopsis) (UniProt Q9SSM7)
T5 sequence: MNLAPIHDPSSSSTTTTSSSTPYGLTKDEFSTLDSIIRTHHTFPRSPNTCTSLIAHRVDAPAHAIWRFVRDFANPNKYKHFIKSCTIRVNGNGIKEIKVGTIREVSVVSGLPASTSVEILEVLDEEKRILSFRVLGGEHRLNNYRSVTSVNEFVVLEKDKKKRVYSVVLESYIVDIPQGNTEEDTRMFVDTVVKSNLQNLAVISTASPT

[6] = molecular target: T6, PYL5-cLUC (Arabidopsis) (UniProt Q9FLB1)
T6 sequence: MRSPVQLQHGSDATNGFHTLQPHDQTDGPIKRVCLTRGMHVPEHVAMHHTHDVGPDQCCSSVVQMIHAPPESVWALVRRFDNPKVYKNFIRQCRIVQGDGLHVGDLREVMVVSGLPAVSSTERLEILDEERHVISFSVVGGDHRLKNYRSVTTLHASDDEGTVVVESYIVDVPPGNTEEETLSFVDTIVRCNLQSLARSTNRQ

[7] = molecular target: T7, PYL6-cLUC (Arabidopsis) (UniProt Q8S8E3)
T7 sequence: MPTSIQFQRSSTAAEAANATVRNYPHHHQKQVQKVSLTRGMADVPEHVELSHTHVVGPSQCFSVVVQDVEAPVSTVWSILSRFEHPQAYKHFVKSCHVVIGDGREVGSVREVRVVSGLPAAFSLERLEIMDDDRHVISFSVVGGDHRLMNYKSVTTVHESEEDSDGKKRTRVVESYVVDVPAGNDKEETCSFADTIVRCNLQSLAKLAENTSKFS

[8] = molecular target: T8, PYL7-cLUC (Arabidopsis) (UniProt Q1ECF1)
T8 sequence: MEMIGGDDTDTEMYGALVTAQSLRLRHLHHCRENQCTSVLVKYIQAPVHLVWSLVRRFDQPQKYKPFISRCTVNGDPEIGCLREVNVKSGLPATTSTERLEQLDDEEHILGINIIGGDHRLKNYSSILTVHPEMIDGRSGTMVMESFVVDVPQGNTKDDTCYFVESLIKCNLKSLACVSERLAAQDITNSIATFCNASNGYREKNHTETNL

[9] = molecular target: T9, PYL8-cLUC (Arabidopsis) (UniProt Q9FGM1)
T9 sequence: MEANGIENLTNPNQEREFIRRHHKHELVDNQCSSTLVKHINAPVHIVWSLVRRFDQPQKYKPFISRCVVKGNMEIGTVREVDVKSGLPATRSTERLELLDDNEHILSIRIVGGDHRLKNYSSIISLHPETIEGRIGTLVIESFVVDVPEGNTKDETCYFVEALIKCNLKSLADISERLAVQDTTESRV

- binding [1]: no binding
- binding [2]: no binding
- binding [3]: no binding
- binding [4]: binds
- binding [5]: binds
- binding [6]: binds
- binding [7]: binds
- binding [8]: no binding
- binding [9]: no binding
B1: CIPK1-nLUC (enzyme, UniProt Q8RWC9 1-444)
chain: MVRRQEEEKKAEKGMRLGKYELGRTLGEGNFGKVKFAKDTVSGHSFAVKIIDKSRIADLNFSLQIKREIRTLKMLKHPHIVRLHEVLASKTKINMVMELVTGGELFDRIVSNGKLTETDGRKMFQQLIDGISYCHSKGVFHRDLKLENVLLDAKGHIKITDFGLSALPQHFRDDGLLHTTCGSPNYVAPEVLANRGYDGAASDIWSCGVILYVILTGCLPFDDRNLAVLYQKICKGDPPIPRWLSPGARTMIKRMLDPNPVTRITVVGIKASEWFKLEYIPSIPDDDDEEEVDTDDDAFSIQELGSEEGKGSDSPTIINAFQLIGMSSFLDLSGFFEQENVSERRIRFTSNSSAKDLLEKIETAVTEMGFSVQKKHAKLRVKQEERNQKGQVGLSVTAEVFEIKPSLNVVELRKSYGDSCLYRQLYERLLKDVGTSSPEQEIVT
